Results reported in PubChem BioAssay AID1460 (National Center for Advancing Translational Sciences (NCATS), 2008).
Several values for one entry are separate records, joined by “and”; a condition that tells them apart may be missing. Equal values may be shown once. In all, about 270,000 compounds went through this assay and about 5,800 (2.1%) were called active. Inconclusive results (about 16%) are left out. Calls come from the whole dose curve; as a rule, active = well fitted inhibition curve with a large enough effect; inconclusive = small, poorly fitted or top-dose-only effect; inactive = flat fitted curve, though single readings scatter. Only a part is listed here, and it is no random draw.

Each compound was assayed against Microtubule-associated protein tau (Homo sapiens) (UniProt P10636) (assay: qHTS for Inhibitors of Tau Fibril Formation, Thioflavin T Binding). Details: recombinant tau K18 P301L (four-repeat tau fragment), heparin-induced fibrillization, ThT fluorescence; series mostly up to 57.4 µM; activity, negative = inhibition: at the top concentration.
Sequence of UniProt P10636 (P10636 whole entry, looked up, the tested form may be a part): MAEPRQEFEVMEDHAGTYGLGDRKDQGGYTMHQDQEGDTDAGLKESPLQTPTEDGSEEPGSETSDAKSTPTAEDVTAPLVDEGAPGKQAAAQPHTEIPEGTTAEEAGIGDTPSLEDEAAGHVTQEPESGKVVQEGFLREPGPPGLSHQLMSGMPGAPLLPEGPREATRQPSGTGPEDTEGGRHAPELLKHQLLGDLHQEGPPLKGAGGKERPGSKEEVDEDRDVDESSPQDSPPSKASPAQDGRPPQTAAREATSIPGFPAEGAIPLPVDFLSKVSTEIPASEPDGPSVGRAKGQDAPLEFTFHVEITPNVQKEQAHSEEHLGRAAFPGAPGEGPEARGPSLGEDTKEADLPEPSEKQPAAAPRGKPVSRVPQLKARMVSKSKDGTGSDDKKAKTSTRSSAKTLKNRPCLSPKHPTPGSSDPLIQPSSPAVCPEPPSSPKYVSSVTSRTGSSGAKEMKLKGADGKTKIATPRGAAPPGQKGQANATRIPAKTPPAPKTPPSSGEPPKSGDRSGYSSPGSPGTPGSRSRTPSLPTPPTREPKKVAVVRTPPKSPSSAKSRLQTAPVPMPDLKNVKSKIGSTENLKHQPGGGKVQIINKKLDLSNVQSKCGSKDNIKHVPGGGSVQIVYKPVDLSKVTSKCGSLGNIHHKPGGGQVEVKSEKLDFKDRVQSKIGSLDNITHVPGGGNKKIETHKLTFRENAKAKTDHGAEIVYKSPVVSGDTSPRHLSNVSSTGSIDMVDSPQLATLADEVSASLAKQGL
Procedure, shortened: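 Tau K18 P301L fragment (15 uM unlabeled plus 0.24 uM Alexa 594-labeled) in 100 mM sodium acetate pH 7 with compound, fibrillization induced by 20 uM heparin for 6 hr at 37 C. Thioflavin T (30 uM) added, fluorescence read after 1 hr (ex 450, em 510 nm).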
% is set by controls: 0 for no effect and ±100 for the full control effect; potency is the fitted concentration of half-maximal effect.
Note: nearly all actives have a fitted effect of over 55% in size.

activity, negative = inhibition, inactive:
CC1(OC(=O)CCc2ccccc2)C(=O)C=C2C=C(c3ccc(C#N)cc3)N(CC3CC3)C=C2C1=O (configuration not stated) -5.87% [at 11.5 µM], Cc1cccc(COC[C@H](Cc2ccccc2)N2CCN(C(=O)c3cccc(Cl)c3)CCC2=O)c1 -12.2%, CC(=O)OC/C=C(C)/C=C/C=C(C)/C=C/C1=C(C)CCCC1(C)C -7.27%, Cc1ccc2[nH]c(=O)c3cc(C(=O)N(CCCOC(C)C)Cc4ccco4)sc3c2c1 -13.7%, Cc1ccc(S(=O)(=O)N2CCC(=O)N(CCOCc3ccc(C(F)(F)F)cc3)CC2)cc1 -4.47%, COC(=O)CCC(=O)OC1(C)C(=O)C=C2C=C(c3ccc(C#N)cc3)OC=C2C1=O (configuration not stated) -2.42%, O=C(c1cc2c(s1)-c1ccccc1OC2)N1CCN(c2ccccc2)CC1 0.866%, COc1cc2c(cc1O)CC[C@@H]1[C@@H]2CC[C@]2(C)[C@@H](O)CC[C@@H]12 -11.8%, COc1ccc(-c2[nH]c(-c3cccc(OC)c3)nc2SCC(=O)NC2CCCC2)cc1 -3.28%, N[C@H]1CCN(O)C1=O -15.9%, CC(=O)OC1CC2C(C)(C)C(=O)C=C[C@]2(C)C2CC[C@@]3(C)C(c4ccoc4)OC(=O)C4O[C@@]43[C@]12C (some centres not stated) -15.4%, COc1ccc(N2C=C3C(=O)C(C)(OC(=O)CCc4ccccc4)C(=O)C=C3C=C2c2ccc(C#N)cc2)cc1 (configuration not stated) -3.14% [at 11.5 µM], CC(N)(Cc1ccc(O)cc1)C(=O)O (configuration not stated) -0.293%, CC(=O)NNC(=O)N1Cc2ccccc2Oc2ccc(Cl)cc21 -12.2%, COC(=O)[C@@H]1CC[C@H](C)[C@@H](c2ccc(C)cc2)N1C(=O)c1ccc(/C=N\O[C@@H](C)c2cn([C@H](CO)Cc3ccccc3)nn2)cc1 -5.22% [at 11.5 µM] and -10.4% [at 11.5 µM], C=C1/C(=C\C=C2/CCC[C@]3(C)[C@@H]([C@H](C)CCCC(C)(C)O)CC[C@@H]23)C[C@@H](O)C[C@@H]1O -3.33%, CC(C)(C)[C@@H]1C=C(C(=O)N2CCN(Cc3ccccc3)CC2)O[C@H](OCCCCO)C1 -3.15%, CC1OC(OCC2OC(Oc3c(-c4ccc(O)c(O)c4)oc4cc(O)cc(O)c4c3=O)C(O)C(O)C2O)[C@@H](O)C(O)C1O (some centres not stated) -13.3%, Cc1cc(C)c2oc(C(=O)Nc3ccc(S(=O)(=O)N4CCC(C)CC4)cc3)cc(=O)c2c1 3.17%, FC(F)(F)c1cc(CO[C@H]2CCCN[C@H]2c2ccccc2)cc(C(F)(F)F)c1 -10.4%, COC(=O)C1=C(C(=O)OC)[C@@H]2N(C)c3ccccc3[C@@]23C[C@@H](C(=O)OC)N(C(=O)c2cc(C)oc2C)C3=N1 -9.6% [at 11.5 µM], CCC(=O)/C=C1\Sc2ccccc2N1CC 0.567%, FC(F)(F)c1ccc(C2[C@H]3CN(Cc4cccnc4)[C@H](c4ccccc4)C34CC2(c2ccccc2)C4)cc1 (some centres not stated) -4.34%, O=C(Nc1cccnc1)c1cc(-c2ccc(Cl)cc2)on1 -10.4%, CCC1=C(OC(=O)N(CC)CC)N2C(=O)OC(=NCCc3c[nH]c4ccccc34)[C@]2(C)[C@H]2C1=CC[C@H]1C(=O)N(CC)C(=O)[C@H]12 -5.72%, Nc1ccccc1C#CCCCCO -8.65%, CCCCC1=CC2=CC(=O)C(C)(OC(=O)CC)C(=O)C2=CN1CCN1CCOCC1 (configuration not stated) 4.47% [at 11.5 µM], CC(=O)C1=C(C)N(Cc2ccccc2)C(=O)N[C@H]1c1ccco1 -10.5%, COc1cc2c(cc1OC)C1C(=O)c3ccc4c(c3OC1CO2)C=CC(C)(C)O4 (configuration not stated) -20.8%, O=C1c2c(O)cc(O)cc2OC(c2ccc(O)c(O)c2)C1O (configuration not stated) -3.18%, O=C(NCCc1c[nH]c2ccccc12)[C@H]1C[C@@H]1[C@H](NP(=O)(c1ccccc1)c1ccccc1)c1ccccc1 -18%, O=C(CCSCc1cccc(Cl)c1)NCCc1ccc(Cl)cc1 1.04%, O=C(O)/C=C/C(=O)Nc1ccc(-c2ccccc2)cc1 -10.5%, Cc1cccc(N2CCN(C(=O)C(C)n3nc(C)n4c(cc5occc54)c3=O)CC2)c1C (configuration not stated) -17.5%, CCO[C@@H]1OC(C(=O)O)=C[C@H](C2CCCCC2)[C@H]1CCCO 0.0576%, COc1ccc(COc2cc(-c3cccc(OC)c3)nc3ccc(NC(=O)c4ccc(C)cc4)cc23)cc1 -5.72%

Potency, active:
CCc1cc(SC#N)cc(C)c1N 14.1 µM, Nc1nonc1C(=O)NCCN=Cc1cc(Cc2ccccc2)cc(Br)c1O 28.2 µM, N=C1C=CC=C2C1=NC1(CCCCC1)N2O 25.1 µM, Oc1ccccc1N=Nc1nc(-c2ccccc2)c(-c2ccccc2)[nH]1 4.47 µM, Clc1ccc(-c2ccc(/C=N/Nc3nncc(-c4ccccc4)n3)o2)cc1 2.24 µM, Oc1cc(-c2ccccc2)c2ccccc2c1 14.1 µM, Cc1cc(-c2ccccc2)nc(N/N=C/c2ccc([N+](=O)[O-])cc2)n1 7.08 µM, COc1ccc(/C=N/Nc2ccc(C(=O)O)cc2)cc1Br 7.08 µM, Cc1ccc2[nH]c(-c3cccc(N)c3)cc2c1 10 µM, CN(C)c1ccc(/C=N/NC(=O)c2ccc(Cn3cc(Br)cn3)o2)cc1 12.6 µM, C/C(=N\NC(=O)c1cc2ccccc2cc1O)c1ccc2c(c1)OCO2 7.08 µM, Cc1ccc2scc(N3CCc4ccccc4C3)c(=O)c2c1 7.08 µM, Cc1cc(C)c2c(c1)/C(=C/C(=O)c1ccc(Br)s1)C(=O)N2 28.2 µM, CC1=CC(C)(C)n2c(O)c(N=N)c3c(C)c(C)cc1c32 25.1 µM

Potency, inactive:
CN(C)CCCN1c2ccccc2CCc2ccc(Cl)cc21, CC(C)C[C@H](NC(=O)[C@@H](O)[C@H](N)Cc1ccccc1)C(=O)O, CCCCCCN(CCCCCC)C(=O)Cc1c(-c2ccc(F)cc2)[nH]c2ccccc12, CCOC(=O)CN1C(=O)N[C@@H](c2ccc(Br)cc2)C(C(C)=O)=C1C, CNCCC=C1c2ccccc2CCc2ccccc21, CCCCCCCCCCCCCCC[C@@H](O)[C@@H](N)CO, CC/C(=C(\c1ccccc1)c1ccc(OCCN(C)C)cc1)c1ccccc1
